In patent US20260265359A1 (Hoffmann-La Roche, published 2026):

Columns and labels:
recombinant human Ang-2 [1] = molecular target: T1, recombinant human Ang-2 (human, UniProt O15123 19-496, limits assumed); assay: ELISA on plate-coated recombinant human Ang-2; anti-human IgG1-Fc-HRP, OD450
T1 construct: also called Angiopoietin-2; hAng-2
T1 sequence (looked up): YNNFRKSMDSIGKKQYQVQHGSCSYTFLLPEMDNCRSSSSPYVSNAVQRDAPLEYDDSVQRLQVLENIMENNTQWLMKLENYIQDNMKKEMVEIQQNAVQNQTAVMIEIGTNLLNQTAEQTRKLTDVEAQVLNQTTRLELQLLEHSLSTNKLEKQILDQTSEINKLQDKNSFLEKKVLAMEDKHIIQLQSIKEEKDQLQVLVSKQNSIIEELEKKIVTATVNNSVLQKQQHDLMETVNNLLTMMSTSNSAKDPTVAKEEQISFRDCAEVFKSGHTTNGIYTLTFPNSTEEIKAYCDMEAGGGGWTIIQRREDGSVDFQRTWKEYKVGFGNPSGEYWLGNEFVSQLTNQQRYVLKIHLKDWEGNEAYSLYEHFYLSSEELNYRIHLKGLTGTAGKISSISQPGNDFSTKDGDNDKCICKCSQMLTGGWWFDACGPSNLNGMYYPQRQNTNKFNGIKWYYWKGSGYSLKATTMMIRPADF
Protocol: (§1) After non-specific blocking using 1% BSA at 25° C. for 1 hour, a series of dilutions of test antibodies (“Abs”) were added into the coated wells and incubated at 25° C. for 1 hour. The bound Abs were detected using a secondary Ab (goat anti-human IgG1-Fc) conjugated with HRP followed by OD₄₅₀ reading.

[2] = molecular target: T2, recombinant human VEGF-A165 (human, UniProt P15692-4 27-191); assay: cell-based or functional assay
T2 sequence (looked up): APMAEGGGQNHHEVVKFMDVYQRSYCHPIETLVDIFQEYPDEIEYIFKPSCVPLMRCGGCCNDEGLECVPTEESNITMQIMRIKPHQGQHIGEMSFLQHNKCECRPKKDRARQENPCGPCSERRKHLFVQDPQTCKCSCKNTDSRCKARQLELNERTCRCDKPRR

recombinant human IL-6R [3] = molecular target: T3, recombinant human IL-6R (human, UniProt P08887 20-365, limits assumed); assay: SPR Biacore, 25 C; test antibody captured by anti-human IgG (Fc) on CM5 chip, target protein as analyte; 1:1 model
T3 construct: Recombinant protein used in ELISA and as SPR analyte; also called hIL-6R
T3 sequence (looked up): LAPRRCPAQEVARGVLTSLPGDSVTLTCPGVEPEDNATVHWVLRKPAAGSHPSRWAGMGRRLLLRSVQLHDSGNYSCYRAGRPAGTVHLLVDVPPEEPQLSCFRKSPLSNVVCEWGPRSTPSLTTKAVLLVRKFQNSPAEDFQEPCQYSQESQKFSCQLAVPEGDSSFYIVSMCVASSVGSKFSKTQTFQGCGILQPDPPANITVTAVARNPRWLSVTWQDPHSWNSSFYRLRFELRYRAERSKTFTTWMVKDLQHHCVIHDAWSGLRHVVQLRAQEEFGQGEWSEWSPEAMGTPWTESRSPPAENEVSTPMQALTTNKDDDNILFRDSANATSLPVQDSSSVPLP
Protocol: (§2) SPR Biacore assay was performed at 25° C. with HBS-EP+ as a running buffer. The assay was performed by immobilization of the anti-human IgG (Fc) antibody onto the CM5 sensor chip surface and determined the level of ligand immobilization. […] Test antibodies were injected over the surface of Series S Sensor Chip CM5 as Capture. The analytes (target proteins) were diluted with running buffer into different concentrations and injected over the sensor surface as the association phase for affinity and kinetics measurements. The 1:1 binding model was used to measure the binding affinity and/or kinetics.

[4] = molecular target: T2, recombinant human VEGF-A165; assay: as above
Protocol: as §2

recombinant human Ang-2 [5] = molecular target: T1, recombinant human Ang-2; assay: as above
Protocol: as §2

recombinant human PIGF [6] = molecular target: T4, recombinant human PIGF (human, UniProt P49763-2 19-149, limits assumed); assay: as above
T4 construct: also called PlGF; placental growth factor
T4 sequence (looked up): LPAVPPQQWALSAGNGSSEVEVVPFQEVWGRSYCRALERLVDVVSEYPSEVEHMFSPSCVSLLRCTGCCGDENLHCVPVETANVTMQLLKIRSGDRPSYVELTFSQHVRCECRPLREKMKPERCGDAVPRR
Protocol: as §2

[7] = molecular target: T5, recombinant human VEGF-B167 (human, UniProt P49765-2 22-188); assay: as above
T5 sequence (looked up): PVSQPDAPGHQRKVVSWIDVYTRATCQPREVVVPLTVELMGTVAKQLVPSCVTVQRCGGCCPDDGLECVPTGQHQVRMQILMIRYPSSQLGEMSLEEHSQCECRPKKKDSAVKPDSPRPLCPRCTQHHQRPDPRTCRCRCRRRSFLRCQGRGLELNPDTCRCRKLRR
Protocol: as §2

recombinant human PIGF [8] = molecular target: T4, recombinant human PIGF; assay: ELISA on plate-coated recombinant human PIGF; anti-human IgG1-Fc-HRP, OD450
Protocol: as §1

recombinant human IL-6R [9] = molecular target: T3, recombinant human IL-6R; assay: ELISA on plate-coated recombinant human IL-6R; anti-human IgG1-Fc-HRP, OD450
[10] = molecular target: T2, recombinant human VEGF-A165; assay: ELISA on plate-coated recombinant human VEGF-A165; anti-human IgG1-Fc-HRP, OD450
Protocol: as §1

B1: EB-105BI-7CA (other)
heavy: QVQLQESGPGLVRPSQTLSLTCTVSGYSITSDHAWSWVRQPPGRGLEWIGYISYSGITTYNPSLKSRVTMLRDTSKNQFSLRLSSVTAADTAVYYCARSLARTTAMDYWGQGSLVTVSSASTKGPSVFPLAPSSKSTSGGTAALGCLVKDYFPEPVTVSWNSGALTSGVHTFPAVLQSSGLYSLSSVVTVPSSSLGTQTYICNVNHKPSNTKVDKKV[human IgG1 Fc skipped]GGSGGGGSGGGGSAQTNFMPMDDLEQRLYEQFILQQGLE
light: SDTGRPFVEMYSEIPEIIHMTEGRELVIPCRVTSPNITVTLKKFPLDTLIPDGKRIIWDSRKGFIISNATYKEIGLLTCEATVNGHLYKTNYLTHRQTNTIIDVVLSPSHGIELSVGEKLVLNCTARTELNVGIDFNWEYPSSKHQHKKLVNRDLKTQSGSEMKKFLSTLTIDGVTRSDQGLYTCAASSGLMTKKNSTFVRVHEKDIQMTQSPSSLSASVGDRVTITCRASQDISSYLNWYQQKPGKAPKLLIYYTSRLHSGVPSRFSGSGSGTDFTFTISSLQPEDIATYYCQQGNTLPYTFGQGTKVEIKRTVAAPSVFIFPPSDEQLKSGTASVVCLLNNFYPREAKVQWKVDNALQSGNSQESVTEQDSKDSTYSLSSTLTLSKADYEKHKVYACEVTHQGLSSPVTKSFNRGEC
notes: VEGFR-1-D2-VEGFR-2-D3 at the N-terminus of the tocilizumab light chain; Made in CHO cells; also called B21138001
EC50 (recombinant human Ang-2 [1]): 0.32 nM
IC50, inhibition of VEGF-A165-stimulated VEGFR-2 NF-AT luciferase reporter (HEK-293), luminescence [2]: 0.566 nM
Kd (recombinant human IL-6R [3]): 0.551 nM
koff (recombinant human IL-6R [3]): 0.000776 s⁻¹
kon (recombinant human IL-6R [3]): 1.41e+06 M⁻¹ s⁻¹
Kd [4]: 0.0132 nM
koff [4]: 0.000424 s⁻¹
kon [4]: 3.22e+07 M⁻¹ s⁻¹
Kd (recombinant human Ang-2 [5]): 0.307 nM
koff (recombinant human Ang-2 [5]): 0.000366 s⁻¹
kon (recombinant human Ang-2 [5]): 1.19e+06 M⁻¹ s⁻¹
Kd (recombinant human PIGF [6]): 0.42 nM
koff (recombinant human PIGF [6]): 0.00841 s⁻¹
kon (recombinant human PIGF [6]): 2e+07 M⁻¹ s⁻¹
Kd [7]: 1.05 nM
koff [7]: 0.000441 s⁻¹
kon [7]: 421000 M⁻¹ s⁻¹
EC50 (recombinant human PIGF [8]): 0.04 nM
EC50 (recombinant human IL-6R [9]): 0.131 nM
EC50 [10]: 0.057 nM

B2: EB-105BI-7CB (other)
heavy: QVQLQESGPGLVRPSQTLSLTCTVSGYSITSDHAWSWVRQPPGRGLEWIGYISYSGITTYNPSLKSRVTMLRDTSKNQFSLRLSSVTAADTAVYYCARSLARTTAMDYWGQGSLVTVSSASTKGPSVFPLAPSSKSTSGGTAALGCLVKDYFPEPVTVSWNSGALTSGVHTFPAVLQSSGLYSLSSVVTVPSSSLGTQTYICNVNHKPSNTKVDKKV[human IgG1 Fc skipped]GGSGGGGSAQTNFMPMDDLEQRLYEQFILQQGLE
light: B1 light
notes: Trispecific antibody fusion protein, first embodiment; lead molecule; also called B21138002
EC50 (recombinant human Ang-2 [1]): 0.189 nM
IC50, inhibition of VEGF-A165-stimulated VEGFR-2 NF-AT luciferase reporter (HEK-293), luminescence [2]: 0.532 nM
Kd (recombinant human IL-6R [3]): 0.474 nM
koff (recombinant human IL-6R [3]): 0.000698 s⁻¹
kon (recombinant human IL-6R [3]): 1.47e+06 M⁻¹ s⁻¹
Kd [4]: 0.025 nM
koff [4]: 0.000679 s⁻¹
kon [4]: 2.71e+07 M⁻¹ s⁻¹
Kd (recombinant human Ang-2 [5]): 0.323 nM
koff (recombinant human Ang-2 [5]): 0.000284 s⁻¹
kon (recombinant human Ang-2 [5]): 878000 M⁻¹ s⁻¹
Kd (recombinant human PIGF [6]): 0.4 nM
koff (recombinant human PIGF [6]): 0.00631 s⁻¹
kon (recombinant human PIGF [6]): 1.58e+07 M⁻¹ s⁻¹
Kd [7]: 0.938 nM
koff [7]: 0.000542 s⁻¹
kon [7]: 578000 M⁻¹ s⁻¹
EC50 (recombinant human PIGF [8]): 0.034 nM
EC50 (recombinant human IL-6R [9]): 0.113 nM
EC50 [10]: 0.066 nM
